Measurements taken from the supplement of paper PMC8728848.
The list shows a part of the results.

What was measured:
Assay in all cases: glycan array binding signal (z-score within array); higher = stronger binding
Details in all cases: glycan notation: IUPAC condensed, linker removed
Fuc(a1-2)Gal = biological target: Fuc(a1-2)Gal
Summary of the method: (§1)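 Glycan array binding is given as a within-array Z-score, which can be read as non-binding when negative. The arrays, 3228 of them, came from the Consortium for Functional Glycomics database and were retained only where the protein sequence was available. Z-scores were averaged across arrays of the same protein sequence at different concentrations or buffers and across linkers.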

Fuc(a1-2)Gal(b1-3)GalNAc = biological target: Fuc(a1-2)Gal(b1-3)GalNAc
Summary of the method: as §1

[1] = biological target: Fuc(a1-2)Gal(b1-3)GalNAc(a1-3)[Fuc(a1-2)]Gal(b1-4)Glc
Summary of the method: as §1

[2] = biological target: Fuc(a1-2)Gal(b1-3)GalNAc(a1-3)[Fuc(a1-2)]Gal(b1-4)GlcNAc
Summary of the method: as §1

[3] = biological target: Fuc(a1-2)Gal(b1-3)GalNAc(b1-3)Gal
Summary of the method: as §1

[4] = biological target: Fuc(a1-2)Gal(b1-3)GalNAc(b1-3)Gal(a1-4)Gal(b1-4)Glc
Summary of the method: as §1

[5] = biological target: Fuc(a1-2)Gal(b1-3)GalNAc(b1-4)[Neu5Ac(a2-3)]Gal(b1-4)Glc
Summary of the method: as §1

Fuc(a1-2)Gal(b1-3)GlcNAc = biological target: Fuc(a1-2)Gal(b1-3)GlcNAc
Summary of the method: as §1

[6] = biological target: Fuc(a1-2)Gal(b1-3)GlcNAc(b1-2)Man(a1-3)[Fuc(a1-2)Gal(b1-3)GlcNAc(b1-2)Man(a1-6)]Man(b1-4)GlcNAc(b1-4)GlcNAc
Summary of the method: as §1

[7] = biological target: Fuc(a1-2)Gal(b1-3)GlcNAc(b1-2)Man(a1-3)[Fuc(a1-2)Gal(b1-3)GlcNAc(b1-2)Man(a1-6)]Man(b1-4)GlcNAc(b1-4)[Fuc(a1-6)]GlcNAc
Summary of the method: as §1

[8] = biological target: Fuc(a1-2)Gal(b1-3)GlcNAc(b1-3)Gal(b1-4)Glc
Summary of the method: as §1

[9] = biological target: Fuc(a1-2)Gal(b1-3)GlcNAc(b1-3)GalNAc
Summary of the method: as §1

[10] = biological target: Fuc(a1-2)Gal(b1-3)GlcNAc(b1-3)[Fuc(a1-2)Gal(b1-3)GlcNAc(b1-6)]GalNAc
Summary of the method: as §1

[11] = biological target: Fuc(a1-2)Gal(b1-3)GlcNAc(b1-3)[Gal(b1-4)GlcNAc(b1-6)]Gal(b1-4)Glc
Summary of the method: as §1

[12] = biological target: Fuc(a1-2)Gal(b1-3)GlcNAc(b1-3)[Neu5Ac(a2-6)Gal(b1-4)GlcNAc(b1-6)]Gal(b1-4)Glc
Summary of the method: as §1

[13] = biological target: Fuc(a1-2)Gal(b1-3)GlcNAc6S
Summary of the method: as §1

[14] = biological target: Fuc(a1-2)Gal(b1-3)[Fuc(a1-4)]GlcNAc
Summary of the method: as §1

[15] = biological target: Fuc(a1-2)Gal(b1-3)[Fuc(a1-4)]GlcNAc(b1-2)Man(a1-3)[Fuc(a1-2)Gal(b1-3)[Fuc(a1-4)]GlcNAc(b1-2)Man(a1-3)]Man(b1-4)GlcNAc(b1-4)GlcNAc
Summary of the method: as §1

[16] = biological target: Fuc(a1-2)Gal(b1-3)[Fuc(a1-4)]GlcNAc(b1-2)Man(a1-3)[Fuc(a1-2)Gal(b1-3)[Fuc(a1-4)]GlcNAc(b1-2)Man(a1-6)]Man(b1-4)GlcNAc(b1-4)[Fuc(a1-6)]GlcNAc(b1-4)[Fuc(a1-6)]GlcNAc
Summary of the method: as §1

[17] = biological target: Fuc(a1-2)Gal(b1-3)[Fuc(a1-4)]GlcNAc(b1-3)[Fuc(a1-3)[Gal(b1-4)]GlcNAc(b1-6)]Gal(b1-4)Glc
Summary of the method: as §1

[18] = biological target: Fuc(a1-2)Gal(b1-3)[Fuc(a1-4)]GlcNAc(b1-3)[Gal(b1-4)GlcNAc(b1-6)]Gal(b1-4)Glc
Summary of the method: as §1

Fuc(a1-2)Gal(b1-4)Glc = biological target: Fuc(a1-2)Gal(b1-4)Glc
Summary of the method: as §1

Fuc(a1-2)Gal(b1-4)Glc6S = biological target: Fuc(a1-2)Gal(b1-4)Glc6S
Summary of the method: as §1

Fuc(a1-2)Gal(b1-4)GlcNAc = biological target: Fuc(a1-2)Gal(b1-4)GlcNAc
Summary of the method: as §1

[19] = biological target: Fuc(a1-2)Gal(b1-4)GlcNAc(b1-2)Man
Summary of the method: as §1

[20] = biological target: Fuc(a1-2)Gal(b1-4)GlcNAc(b1-2)Man(a1-3)[Fuc(a1-2)Gal(b1-4)GlcNAc(b1-2)Man(a1-6)]Man(b1-4)GlcNAc(b1-4)GlcNAc
Summary of the method: as §1

[21] = biological target: Fuc(a1-2)Gal(b1-4)GlcNAc(b1-2)Man(a1-3)[Fuc(a1-2)Gal(b1-4)GlcNAc(b1-2)Man(a1-6)]Man(b1-4)GlcNAc(b1-4)[Fuc(a1-6)]GlcNAc
Summary of the method: as §1

[22] = biological target: Fuc(a1-2)Gal(b1-4)GlcNAc(b1-2)[Fuc(a1-2)Gal(b1-4)GlcNAc(b1-4)]Man(a1-3)[Fuc(a1-2)Gal(b1-4)GlcNAc(b1-2)Man(a1-6)]Man(b1-4)GlcNAc(b1-4)GlcNAc
Summary of the method: as §1

[23] = biological target: Fuc(a1-2)Gal(b1-4)GlcNAc(b1-3)Gal(b1-4)GlcNAc
Summary of the method: as §1

[24] = biological target: Fuc(a1-2)Gal(b1-4)GlcNAc(b1-3)Gal(b1-4)GlcNAc(b1-2)Man(a1-3)[Fuc(a1-2)Gal(b1-4)GlcNAc(b1-3)Gal(b1-4)GlcNAc(b1-2)Man(a1-6)]Man(b1-4)GlcNAc(b1-4)GlcNAc
Summary of the method: as §1

B1: Cohesin-hDCIR (Homo sapiens) (protein)
chain: LDDLDAVRIKVDTVNAKPGDTVRIPVRFSGIPSKGIANCDFVYSYDPNVLEIIEIEPGDIIVDPNPDKSFDTAVYPDRKIIVFLFAEDSGTGAYAITKDGVFATIVAKVKEGAPNGLSVIKFVEVGGFANNDLVEQKTQFFDGGANVGDTTEPATPTTPVTTPTTTDDLDAASQKYSQLLEKKTTKELVHTTLECVKKNMPVEETAWSCCPKNWKSFSSNCYFISTESASWQDSEKDCARMEAHLLVINTQEEQDFIFQNLQEESAYFVGLSDPEGQRHWQWVDQTPYNESSTFWHPREPSDPNERCVVLNFRKSPKRWGWNDVNCLGPQRSVCEMMKIHLHHHHHH
- glycan array binding signal (z-score) (Fuc(a1-2)Gal): 0.128
- glycan array binding signal (z-score) (Fuc(a1-2)Gal(b1-3)GalNAc): -0.617
- glycan array binding signal (z-score) [1]: -0.686
- glycan array binding signal (z-score) [2]: -0.457
- glycan array binding signal (z-score) [3]: 0.634
- glycan array binding signal (z-score) [4]: 1.73
- glycan array binding signal (z-score) [5]: -0.353
- glycan array binding signal (z-score) (Fuc(a1-2)Gal(b1-3)GlcNAc): -0.203
- glycan array binding signal (z-score) [6]: 0.143
- glycan array binding signal (z-score) [7]: -0.479
- glycan array binding signal (z-score) [8]: -0.653
- glycan array binding signal (z-score) [9]: -0.456
- glycan array binding signal (z-score) [10]: -0.364
- glycan array binding signal (z-score) [11]: 0.456
- glycan array binding signal (z-score) [12]: -0.471
- glycan array binding signal (z-score) [13]: -0.481
- glycan array binding signal (z-score) [14]: -0.373
- glycan array binding signal (z-score) [15]: 0.201
- glycan array binding signal (z-score) [16]: -0.479
- glycan array binding signal (z-score) [17]: -0.643
- glycan array binding signal (z-score) [18]: -0.479
- glycan array binding signal (z-score) (Fuc(a1-2)Gal(b1-4)Glc): 0.154
- glycan array binding signal (z-score) (Fuc(a1-2)Gal(b1-4)Glc6S): -0.093
- glycan array binding signal (z-score) (Fuc(a1-2)Gal(b1-4)GlcNAc): -0.064
- glycan array binding signal (z-score) [19]: -0.618
- glycan array binding signal (z-score) [20]: 0.047
- glycan array binding signal (z-score) [21]: -0.285
- glycan array binding signal (z-score) [22]: -0.378
- glycan array binding signal (z-score) [23]: -0.255
- glycan array binding signal (z-score) [24]: -0.431
